Results reported in US20250163186A1 (PHYLAXIS BIOSCIENCE, published 2025).
Read-outs that look alike come from different tables or passages of the source. Blank lines part the entries; values can stand above or below the binder they belong to.

What was measured:
[1] = target: recombinant human anti-hapten dinitrophenol (DNP) IgE (rhIgE) (human, UniProt P01854-1 1-428); assay: cell-based or functional assay
human IgE [2] = target: T1, human IgE (human, UniProt P01854 1-428); assay: flow cytometry, blocks binding of 5 nM IgE to FCER1A on human mast cells
T1 construct: written under the same molecule; also called IgE (Abcam ab65866); soluble IgE

human IgE [3] = target: T1, human IgE; assay: ELISA, blocks binding of 5 nM IgE to coated FCER1A
T1 sequence (P01854 other isoform, or with tags, fused parts or gaps limits assumed, form in doubt): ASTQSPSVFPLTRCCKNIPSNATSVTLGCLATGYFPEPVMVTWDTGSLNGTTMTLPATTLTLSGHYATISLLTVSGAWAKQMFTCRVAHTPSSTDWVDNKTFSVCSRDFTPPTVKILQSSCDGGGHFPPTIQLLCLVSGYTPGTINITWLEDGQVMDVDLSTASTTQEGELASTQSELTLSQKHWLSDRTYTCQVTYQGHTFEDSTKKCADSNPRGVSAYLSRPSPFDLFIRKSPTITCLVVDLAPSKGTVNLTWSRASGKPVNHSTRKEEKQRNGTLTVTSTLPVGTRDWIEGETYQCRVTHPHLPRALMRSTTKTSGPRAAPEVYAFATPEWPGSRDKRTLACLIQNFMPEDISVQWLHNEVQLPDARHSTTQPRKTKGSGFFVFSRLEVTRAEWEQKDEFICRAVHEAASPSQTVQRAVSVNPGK
Procedure: (§1) The following day, plates were blocked with 1% BSA in PBS for 30 min-1 hour. […] Afterwards, the plates were PBST washed with the plate washer and detected with Peroxidase AffiniPure Donkey Anti-Human IgG, Fcγ fragment specific secondary detection antibody. Room temperature TMB was added and OD650 was measured using the Emax plate reader. […] Room temperature TMB was added and OD650 was measured using the Emax plate reader. The data was plotted and analyzed using GraphPad Prism analysis software.

human IgE [4] = target: T1, human IgE; assay: SPR (Biacore T200, 37 C), IgE low density (~14 RU) on protein L, 1:1 fit
Procedure: (§2) All experiments were done using a Biacore T200 instrument with a CM5 chip at 37° C. except immobilization of Protein L, which was done at 25° C.
(§3) For this study Flow Cell (FC) 1 was used as the reference for FC2, FC3 and FC4. Protein L (15 mg/ml stock concentration) was diluted (1:50 dilution, 0.3 mg/ml diluted concentration) in 10 mM sodium acetate buffer at pH 4.5 and immobilized onto all FCs to a level of ˜14000 RU, using the standard amine coupling chemistry. HBS-P (10 mM Hepes, pH 7.4, 150 mM NaCl, 0.05% v/v surfactant P20) was used as the immobilization running buffer. […] HBS-P was used as the capture running buffer. Overnight kinetics were performed for all analytes in the presence of HBS-P. The flow rate of all analyte solutions was maintained at 50 μL/min. The contact and dissociation times used were 120 seconds and 600 seconds, respectively. Glycine pH 1.5 was injected for 20 seconds for surface regeneration. This regeneration condition takes away all captured ligand. Therefore, fresh ligand solution was captured in the beginning of each injection cycle. Injected analyte concentrations are from 80 nM to 0.01953 nM (four-fold dilutions). All analytes were injected in duplicate.

human IgE [5] = target: T1, human IgE; assay: SPR (Biacore T200, 37 C), IgE high density (~1400 RU) on protein L, 1:1 fit
Procedure: as §2, §3

human IgE [6] = target: T1, human IgE; assay: ELISA, blocks binding of 5 nM IgE to coated FCER1A; remark: listed apart in the source
human IgE [7] = target: T1, human IgE; assay: SPR, blocks binding of 5 nM IgE to captured FCER1A
Procedure: as §2
Sensorgrams from the overnight kinetics were plotted for further evaluation.

human IgE [8] = target: T1, human IgE; assay: ELISA, human IgE coated
Procedure: as §1

human IgE [9] = target: T1, human IgE; assay: SPR (Biacore T200, 37 C), IgE medium density (~114 RU) on protein L, 1:1 fit
Procedure: as §2, §3

human IgE [10] = target: T1, human IgE; assay: ELISA, human IgE coated; remark: listed apart in the source
human IgE [11] = target: T1, human IgE; assay: ELISA, blocks binding of 5 nM IgE to coated FCER2/CD23
Procedure: as §1

human IgE [12] = target: T1, human IgE; assay: SPR (Biacore T200, 25 C), IgE captured on protein L, antibody as analyte, 1:1 fit
Procedure: (§4) All experiments were done using a Biacore T200 instrument with a CM5 chip at 25° C., Flow Cell (FC) 1 was used as the reference for FC2, and FC3 for FC4.
Protein L (15 mg/mL) was diluted (1:50 dilution, 0.3 mg/mL diluted concentration) in 10 mM sodium acetate buffer at pH 4.5 and immobilized onto FCs 1 and 2 to a level of ˜13000 RU, using the standard amine coupling chemistry. […] PBS-P was used as the capture running buffer. Overnight kinetics were performed for all analytes in the presence of PBS-P. The flow rate of all analyte solutions was maintained at 50 μL/min. The contact and dissociation times used were 120 seconds and 600 seconds, respectively. Glycine pH 2.0 was injected for 20 seconds for surface regeneration. This regeneration condition takes away all captured ligand. Therefore, fresh ligand solution was captured in the beginning of each injection cycle. Injected analyte concentrations are from 50 nM to 0.098 nM (two-fold dilutions). All analytes were injected in duplicate. Sensorgrams from the overnight kinetics were evaluated by using 1:1 kinetics model fitting.

human IgE [13] = target: T1, human IgE; assay: ELISA, plate-coated IgE, apparent Kd (one site fit)
Description: The data was plotted and analyzed using GraphPad Prism analysis software.

human IgE [14] = target: T1, human IgE; assay: ELISA, plate-coated IgE
human IgE [15] = target: T1, human IgE; assay: ELISA, plate-coated IgE; remark: listed apart in the source
[16] = target: T2, Human IgD (AbCam, Cat. No. Ab91022) (human, UniProt P01880-1 1-384); assay: ELISA, human IgD coated
T2 sequence (looked up): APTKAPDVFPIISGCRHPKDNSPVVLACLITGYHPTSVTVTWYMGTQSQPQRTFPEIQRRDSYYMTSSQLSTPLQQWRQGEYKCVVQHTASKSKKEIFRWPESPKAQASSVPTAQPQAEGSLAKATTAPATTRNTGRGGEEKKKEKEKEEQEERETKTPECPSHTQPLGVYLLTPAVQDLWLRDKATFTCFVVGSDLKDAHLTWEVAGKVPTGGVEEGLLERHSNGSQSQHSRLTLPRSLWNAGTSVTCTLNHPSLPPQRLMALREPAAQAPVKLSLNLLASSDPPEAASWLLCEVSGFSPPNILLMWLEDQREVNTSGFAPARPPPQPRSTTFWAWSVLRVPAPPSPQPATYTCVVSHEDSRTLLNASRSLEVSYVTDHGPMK

human IgE [17] = target: T1, human IgE; assay: ELISA, plate-coated IgE, apparent Kd (one site fit); remark: listed apart in the source
human IgE [18] = target: T1, human IgE; assay: SPR, blocks binding of 5 nM IgE to captured FCER1A; remark: listed apart in the source
Procedure: as §4
Anti-His antibody (1 mg/ml stock) was diluted (1:100 dilution, 0.01 mg/ml diluted concentration) in 10 mM sodium acetate buffer at pH 4.5 and immobilized onto FCs 1 and 2 to a level of ˜14000 RU, using the standard amine coupling chemistry. […] FCER1A (0.4 mg/ml stock concentration) was diluted ([…], ˜0.004 mg/ml diluted concentration) in PBS-P captured onto FC2 to levels of ˜130 RU. PBS-P was used as the capture running buffer. Overnight kinetics were performed for all analytes in the presence of PBS-P. The flow rate of all analyte solutions was maintained at 50 μL/min. The contact and dissociation times used were 120 seconds and 300 seconds, respectively. Glycine pH 1.5 was injected for 20 seconds for surface regeneration. This regeneration condition takes away all captured FCER1A. Therefore, fresh FCER1A was captured in the beginning of each injection cycle. […] All analytes were injected in duplicate. […] Sensorgrams from the overnight kinetics were plotted for further evaluation.

[19] = target: human IgG2 (Athensresearch, 16-16-090707-2) (human, UniProt P01859-1 1-326 = IgG part); assay: ELISA, human IgG2 coated
human IgE [20] = target: T1, human IgE; assay: ELISA, blocks binding of 5 nM IgE to coated FCER1A; remark: listed apart in the source
Procedure: as §1

human IgE [21] = target: T1, human IgE; assay: ELISA, human IgE coated; remark: listed apart in the source
Procedure: as §1

[22] = target: human IgM (Novus, NBP1-97056) (human, UniProt P01871-1 1-453); assay: ELISA, human IgM coated
[23] = target: T3, chimeric cynomolgus monkey IgE (cynomolgus monkey (Macaca fascicularis)); assay: ELISA, plate-coated cynomolgus IgE, apparent Kd (one site fit)
T3 construct: domain: CH1-4 constant domains; Generated in house in place of commercial cynomolgus IgE; also called cyno IgE

- Activation IC50 (nM), CD63 on mast cells [1]: 2.06 nM
- IC50 (human IgE [2]): 387 pM
- IC50 (human IgE [3]): 2220 pM
- Kd (human IgE [4]): 800 pM
- koff (human IgE [4]): 0.00044 s⁻¹
- kon (human IgE [4]): 534000 M⁻¹ s⁻¹
- Kd (human IgE [5]): 1000 pM
- koff (human IgE [5]): 0.00025 s⁻¹
- kon (human IgE [5]): 253000 M⁻¹ s⁻¹
- IC50 (human IgE [6]): 3250 pM
- IC50 (human IgE [7]): ~3400 pM
- Bmax (human IgE [8]): 0.946 OD 650
- Kd (human IgE [8]): 144 pM
- Kd (human IgE [9]): 600 pM
- koff (human IgE [9]): 0.000259 s⁻¹
- kon (human IgE [9]): 415000 M⁻¹ s⁻¹
- Kd (human IgE [10]): 124 pM
- IC50 (human IgE [11]): 4410 pM
B1: hzB10v40-IgG1 SELF Fc region (cx13054) (Fc fusion)
chain: EVQLLESGGGEVQPGGSLRLSCVASGLTFSSYNMGWLRQAPGKEREFVGLSGSSSTSTYYAESVKGRFTISRDNAKNTVYLQMTSLRAEDTAVYYCAARRLLSTYWSDRSWDFWGQGTLVTVEPGGGG[letters of human IgG1 Fc with changes omitted]
notes: hzB10v40 VHH + GGGG linker + IgG1 SELF Fc; also called hzB10v40-SELF; hzB10v40-IgG SELF Fc

- IC50 (human IgE [6]): 3240 pM
- Kd (human IgE [10]): 127 pM
B2: hzB10v40.52-IgG1-SELF (cx13784) (Fc fusion)
chain: EVQLLESGGGEVQPGGSLRLSCVASGLTFSSYNMGWLRQAPGKEREFVGLSGVSSTSTYYAESVKGRFTISRDNAKNTGYLQMNSLRAEDTAVYYCAARRLLSTYWSHRSWDFWGQGTLVTVEPGGGG[letters of human IgG1 Fc with changes omitted]
notes: also called hzB10v40.52-SELF

- Kd (human IgE [12]): 100 pM
- koff (human IgE [12]): 0.000415 s⁻¹
- kon (human IgE [12]): 3.55e+06 M⁻¹ s⁻¹
- Kd (human IgE [13]): 198 pM
- Bmax (OD 650 nm) (human IgE [14]): 1.05 OD 650 nm
- Bmax (OD 650 nm) (human IgE [15]): 0.809 OD 650 nm
- binding result [16]: no binding (tested: 250 nM)
- IC50 (human IgE [3]): 1720 pM
- Kd (human IgE [17]): 176 pM
- IC50 (human IgE [18]): ~2200 pM
- Kd (human IgE [4]): 100 pM
- koff (human IgE [4]): 0.000384 s⁻¹
- kon (human IgE [4]): 3.74e+06 M⁻¹ s⁻¹
- Kd (human IgE [5]): 300 pM
- koff (human IgE [5]): 0.000323 s⁻¹
- kon (human IgE [5]): 1.07e+06 M⁻¹ s⁻¹
- binding result [19]: no binding (tested: 250 nM)
- IC50 (human IgE [20]): 2920 pM
- Bmax (human IgE [21]): 0.932 OD 650
- Kd (human IgE [21]): 115 pM
- Bmax (human IgE [8]): 1.17 OD 650
- Kd (human IgE [8]): 151 pM
- Kd (human IgE [9]): 50 pM
- koff (human IgE [9]): 0.000371 s⁻¹
- kon (human IgE [9]): 7.97e+06 M⁻¹ s⁻¹
- binding result [22]: no binding (tested: 250 nM)
- Kd [23]: 255 pM
- IC50 (human IgE [11]): 1520 pM
B3: cx10759 (humanized IgE026-IgG SELF Fc) (Fc fusion)
chain: EVQLLESGGGEVQPGGSLRLSCAASGFTFGNYDMAWVRQAPGKRPEWVSSIDTGGGSTYYAESVKGRFTISRDNAKNTLYLQMSSLRAEDTAVYWCATDEEYALGPNEFDYYGQGTLVTVKPGGGG[letters of human IgG1 Fc with changes omitted]
notes: Humanized IgE026 VHH fused to human IgG1 SELF Fc; comparator; also called 026 VHH based anti-IgE sdAb comparator; 026 based sdAb
